The results in this text go back to patent US20260234276A1 (DOMAIN THERAPEUTICS, published 2026).

Experiment [1] deals with T1, biotinylated CCR8 peptide (human, N-terminal biotin).
T1 construct: first 34 residues of human CCR8 plus a C-terminal K; also called biotinylated target peptide
Nature of the experiment: ELISA, soluble Fab on biotinylated CCR8 peptide captured on streptavidin. As for the experimental part: (§1) The wells of a microtiter plate were coated with 200 ng streptavidin protein in 100 μL Coating Buffer (0.1 M NaHCO₃, pH 8.6), and then incubated overnight at 4° C. For negative control, the wells were coated with PBS to determine non-specific binding. After shaking out the coating solution, the wells were washed three times with washing buffer (0.1% Tween 20-PBS). To prevent non-specific binding, 200 μL Blocking Buffer (3% BSA-PBS) was adding and incubated for 2 h at 37° C. After shaking out the blocking buffer, the wells were incubated with 50 ng biotinylated target peptide (SEQ ID NO: 420; see Example 10) in 100 μL Blocking Buffer for 1 h at 37° C. The control well was incubated with only 100 μL Blocking Buffer for 1 h at 37° C. After shaking out the biotinylated target peptide or buffer solution, the wells were washed 3 times with the washing buffer (0.1% Tween 20-PBS). Then 100 μL supernatant containing soluble Fab were added and incubated for 2 h at 37° C. Following three washes with washing buffer (0.1% Tween 20-PBS) for 3 times, 100 μL/well HRP conjugate of mouse anti-Flag tag mAb (Sigma A8592, 1:5000) diluted in Blocking Buffer were added and incubated for 1 h at 37° C. After washings, 3,3′,5,5′-tetramethylbenzidine (TMB) (Sigma) were added for 5 to 30 min at room temperature. The reaction was stopped by adding 50 μL/well of 1 M H₂SO₄.
Sequence of streptavidin (P22629 37-163 limits assumed): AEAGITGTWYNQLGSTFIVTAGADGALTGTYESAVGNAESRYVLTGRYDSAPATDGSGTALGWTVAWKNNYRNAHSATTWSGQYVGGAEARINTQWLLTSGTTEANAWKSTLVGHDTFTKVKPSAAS

The next experiment addresses T2, streptavidin (UniProt P22629 fragment, limits assumed).
T2 construct: control well without peptide
Nature of the experiment: ELISA, soluble Fab on streptavidin-coated control well without peptide. The procedure:
as §1

B1: 3-58 (Fab, V domains shown)
VH: [about 100 residues left out here]PVGGDSGFDYWGKGTLVTVSS
VL: LPVLTQPPSASGTPGQRVTISCSGSSSNIGSNYVYWYQQLPGTAPKLLIYSNNQRPSGVPDRFSGSKSGTSASLAISGLQSEDEADYYCAAWDASLNGRVFGGGTKLTVLG
notes: soluble Fab from phage display library huFabL-4, Flag tag
On to B1, for which the “Optical Density” value is 2.25 OD450 in experiment [1] and 0.1 OD450 with streptavidin.
